IC50 is the fitted dose that halves viability relative to control wells, and lower means more sensitive; fits outside the tested doses are given as limits. For AUC the same curve is integrated over the 256-fold range of doses and scaled to a fraction; it is 1 without any effect and falls as sensitivity rises. For some of these results: An inferred top dose comes from the curve model; the source does not state it.
Assays:
Assay in all cases: Viability of human cancer cell lines after 72 h of drug (GDSC screen)
[1] = compound: Cc1cnc(CNC(=O)c2c(=O)c3ccc(N4CCCN(C)CC4)nc3n3c2sc2ccccc23)cn1 [CX-5461]; conditions: top dose 10.24 µM; top dose inferred
Procedure: (§1)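 Human cancer cell lines in 384-well plates, medium with 10% serum, drug for 72 h over a 256-fold dose range (nine 2-fold or five 4-fold steps up to the top dose). Adherent lines were fixed and stained with the nucleic acid dye Syto60, suspension lines read with resazurin; signal relative to control wells, capped at 0 and 100%. One two-parameter sigmoid per drug and line, fitted in a mixed model over all curves with the slope shared within a line.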

[2] = compound: CC(=O)O[C@H]1C(=O)[C@@]2(C)[C@H]([C@H](OC(=O)c3ccccc3)[C@]3(O)C[C@H](OC(=O)[C@H](O)[C@@H](NC(=O)c4ccccc4)c4ccccc4)C(C)=C1C3(C)C)[C@]1(OC(C)=O)CO[C@@H]1C[C@@H]2O [Paclitaxel]; conditions: top dose 0.1024 µM
Procedure: as §1

[3] = compound: CC(C)C[C@H](NC(=O)[C@H](Cc1ccccc1)NC(=O)c1cnccn1)B(O)O [Bortezomib]; conditions: top dose 0.02 µM
Procedure: as §1

[4] = compound: Cc1cccc(Nc2nc(-c3ccncc3)cs2)c1 [STF-62247]; conditions: top dose 10.24 µM; top dose inferred
Procedure: as §1

[5] = compound: COC1=CC(c2cc3ccccc3[nH]2)=N/C1=C\c1[nH]c(C)cc1C [Obatoclax mesylate]; conditions: top dose 16 µM
Procedure: as §1

[6] = compound: COCC(=O)NC/C=C/c1ccc2ncnc(Nc3ccc(Oc4ccc(C)nc4)c(C)c3)c2c1 [CP724714]; conditions: top dose 10.24 µM; top dose inferred
Procedure: as §1

Cell Line | AUC [1] | IC50 [1] | AUC [2] | IC50 [2] | AUC [3] | IC50 [3] | AUC [4] | IC50 [4] | AUC [5] | IC50 [5] | AUC [6] | IC50 [6]
SW684 (fibrosarcoma, adherent) | 0.983 | > 10200 nM | 0.981 | > 102 nM | 0.468 | 0.981 nM | 0.982 | > 10200 nM | 0.821 | 15600 nM | 0.982 | > 10200 nM
SW872 (soft tissue, adherent) | 0.989 | > 10200 nM | 0.808 | 46.8 nM | 0.415 | 0.751 nM | 0.989 | > 10200 nM | 0.24 | 195 nM | 0.989 | > 10200 nM
SW954 (urogenital system, adherent) | 0.621 | 1390 nM | 0.315 | 1.93 nM | 0.57 | 1.95 nM | 0.974 | > 10200 nM | 0.372 | 440 nM | 0.921 | > 10200 nM
SW962 (urogenital system, adherent) | 0.784 | 5530 nM | 0.53 | 7.89 nM | 0.682 | 4.6 nM | 0.981 | > 10200 nM | 0.162 | 67.3 nM | 0.982 | > 10200 nM
TC-71 (Ewing sarcoma, adherent) | 0.912 | > 10200 nM | 0.81 | 43.1 nM | 0.723 | 4.7 nM | 0.99 | > 10200 nM | 0.821 | 7320 nM | 0.976 | > 10200 nM
TE-1 (oesophagus, adherent) | 0.957 | > 10200 nM | 0.494 | 6.14 nM | 0.449 | 0.875 nM | 0.982 | > 10200 nM | 0.242 | 145 nM | 0.963 | > 10200 nM
TE-5 (oesophagus, adherent) | 0.939 | > 10200 nM | 0.622 | 14.6 nM | 0.396 | 0.618 nM | 0.982 | > 10200 nM | 0.384 | 455 nM | 0.978 | > 10200 nM
TE-6 (oesophagus, adherent) | 0.755 | 4020 nM | 0.501 | 6.44 nM | 0.829 | 15.4 nM | 0.974 | > 10200 nM | 0.552 | 1420 nM | 0.908 | > 10200 nM
TE-8 (oesophagus, adherent) | 0.863 | 9890 nM | 0.321 | 1.95 nM | 0.406 | 0.678 nM | 0.968 | > 10200 nM | 0.188 | 107 nM | 0.956 | > 10200 nM
TE-9 (oesophagus, adherent) | 0.956 | > 10200 nM | 0.456 | 4.84 nM | 0.297 | 0.326 nM | 0.981 | > 10200 nM | 0.284 | 239 nM | 0.986 | > 10200 nM
TE-10 (oesophagus, adherent) | 0.889 | > 10200 nM | 0.354 | 2.54 nM | 0.406 | 0.693 nM | 0.983 | > 10200 nM | 0.158 | 92.1 nM | 0.983 | > 10200 nM
TE-12 (oesophagus, suspension) | 0.894 | > 10200 nM | 0.681 | 23.1 nM | 0.708 | 5.56 nM | 0.983 | > 10200 nM | 0.356 | 365 nM | 0.918 | > 10200 nM
TE-15 (oesophagus, suspension) | 0.697 | 2480 nM | 0.268 | 1.27 nM | 0.65 | – | 0.967 | > 10200 nM | 0.267 | 196 nM | 0.632 | 1560 nM
TGBC1TKB (biliary tract, adherent) | 0.989 | > 10200 nM | 0.62 | 13.7 nM | 0.555 | 1.76 nM | 0.986 | > 10200 nM | 0.448 | 720 nM | 0.986 | > 10200 nM
TGW (neuroblastoma, adherent) | 0.778 | 3550 nM | 0.887 | – | 0.781 | 7.07 nM | 0.992 | > 10200 nM | 0.107 | 70 nM | 0.99 | > 10200 nM
TK10 (kidney, adherent) | 0.98 | > 10200 nM | 0.709 | 28.6 nM | 0.378 | 0.536 nM | 0.978 | > 10200 nM | 0.294 | 230 nM | 0.949 | > 10200 nM
U-698-M (B-cell leukaemia, suspension) | 0.762 | 3670 nM | 0.952 | > 102 nM | 0.735 | 5.86 nM | 0.947 | > 10200 nM | 0.176 | 105 nM | 0.972 | > 10200 nM
UACC-257 (melanoma, adherent) | 0.932 | > 10200 nM | 0.748 | 40.3 nM | 0.436 | 0.801 nM | 0.982 | > 10200 nM | 0.422 | 582 nM | 0.97 | > 10200 nM
VA-ES-BJ (soft tissue, adherent) | 0.979 | > 10200 nM | 0.382 | 2.97 nM | 0.454 | 0.928 nM | 0.981 | > 10200 nM | 0.44 | 678 nM | 0.984 | > 10200 nM
VCaP (prostate, adherent) | 0.921 | > 10200 nM | 0.654 | 17.4 nM | 0.638 | 3.06 nM | 0.987 | > 10200 nM | 0.271 | 216 nM | 0.979 | > 10200 nM
WIL2-NS (lymphoid neoplasm, suspension) | 0.344 | 259 nM | 0.462 | 5.16 nM | 0.5 | 1.25 nM | 0.93 | > 10200 nM | 0.063 | < 62.5 nM | 0.925 | > 10200 nM
YT (lymphoid neoplasm, suspension) | 0.647 | 1520 nM | 0.992 | > 102 nM | 0.93 | > 20 nM | 0.876 | 7600 nM | 0.128 | 87.3 nM | 0.976 | > 10200 nM
no-10 (glioma, adherent) | 0.93 | > 10200 nM | 0.444 | 4.33 nM | 0.255 | 0.208 nM | 0.983 | > 10200 nM | 0.54 | 1320 nM | 0.976 | > 10200 nM
no-11 (glioma, adherent) | 0.911 | > 10200 nM | 0.709 | 29.4 nM | 0.535 | 1.6 nM | 0.982 | > 10200 nM | 0.58 | 1750 nM | 0.98 | > 10200 nM

Source: the supplement of paper PMC4967469
